# IC50 is the fitted dose that halves viability relative to control wells, and lower means more sensitive; a limit (>, <) means that the fit lies beyond the doses tested. AUC sums up the same curve from the lowest dose to the 256-fold higher top dose; the more sensitive the line, the further below 1. An inferred top dose was derived from the fitted curves, not read from the paper. For some of these results: Drugs with an entry number were screened twice under separate entries, and the two screens often disagree.
# How the values were obtained:
# AICAR = compound: NC(=O)c1ncn([C@@H]2O[C@H](CO)[C@@H](O)[C@H]2O)c1N [AICAR]; test: Viability of human cancer cell lines after 72 h of drug (GDSC screen); conditions: top dose 2000 µM; top dose inferred
# Protocol: (§1)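 Human cancer cell lines in 384-well plates, medium with 10% serum, drug for 72 h over a 256-fold dose range (nine 2-fold or five 4-fold steps up to the top dose). Adherent lines were fixed and stained with the nucleic acid dye Syto60, suspension lines read with resazurin; signal relative to control wells, capped at 0 and 100%. One two-parameter sigmoid per drug and line, fitted in a mixed model over all curves with the slope shared within a line.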
# AKT inhibitor VIII = compound: O=c1[nH]c2ccccc2n1C1CCN(Cc2ccc(-c3[nH]c4cc5ncnc5cc4nc3-c3ccccc3)cc2)CC1 [AKT inhibitor VIII]; test: as above; conditions: top dose inferred
# Protocol: as §1
# [1] = top dose 2.56 µM, screen: GDSC drug entry 171
# [2] = top dose 10.24 µM, screen: GDSC drug entry 228
Cell Line,AUC (AICAR),IC50 (AICAR) [µM],AUC (AKT inhibitor VIII; [1]),IC50 (AKT inhibitor VIII; [1]) [µM],AUC (AKT inhibitor VIII; [2]),IC50 (AKT inhibitor VIII; [2]) [µM]
"BHT-101 (thyroid, adherent)",0.9,> 2000,0.881,> 2.56,0.896,> 10.2
"NCI-H1623 (lung adenocarcinoma, adherent)",0.945,> 2000,0.935,> 2.56,0.959,> 10.2
"U-2-OS (osteosarcoma, adherent)",0.841,1570,0.974,> 2.56,0.939,> 10.2
"EHEB (lymphoid neoplasm, suspension)",0.746,897,0.941,> 2.56,–,–
"CHP-126 (neuroblastoma, suspension)",0.603,242,0.98,> 2.56,–,–
"WM35 (melanoma, adherent)",0.651,328,0.954,> 2.56,0.871,9.74
"MHH-ES-1 (Ewing sarcoma, adherent)",0.832,1260,0.86,2.11,0.676,1.97
"NCI-H3122 (lung adenocarcinoma, adherent)",0.922,> 2000,0.702,0.603,0.9,> 10.2
"HCC1500 (breast, adherent)",0.565,190,0.988,> 2.56,0.897,> 10.2
"NCI-H2347 (lung adenocarcinoma, adherent)",0.911,> 2000,0.927,> 2.56,0.821,7.62
"RERF-LC-MS (lung adenocarcinoma, adherent)",0.983,> 2000,0.947,> 2.56,0.983,> 10.2
"IST-MEL1 (melanoma, adherent)",0.933,> 2000,0.913,> 2.56,0.896,> 10.2
"TT (thyroid, adherent)",0.861,> 2000,0.848,> 2.56,0.983,> 10.2
"451Lu (melanoma, adherent)",0.926,> 2000,0.965,> 2.56,0.95,> 10.2
"IM-9 (myeloma, suspension)",0.951,> 2000,0.992,> 2.56,–,–
"DOHH-2 (B-cell lymphoma, suspension)",0.812,1040,0.974,> 2.56,–,–
"TK10 (kidney, adherent)",0.946,> 2000,0.968,> 2.56,0.879,> 10.2
"SCC-25 (head and neck, adherent)",0.834,1550,0.931,> 2.56,0.69,2.36
"CCRF-CEM (lymphoblastic leukaemia, suspension)",0.644,291,0.91,> 2.56,0.497,0.631
"PL4 (pancreas, adherent)",0.987,> 2000,0.944,> 2.56,0.972,> 10.2

Cell Line,AUC (AICAR),IC50 (AICAR) [µM],AUC (AKT inhibitor VIII; [1]),IC50 (AKT inhibitor VIII; [1]) [µM],AUC (AKT inhibitor VIII; [2]),IC50 (AKT inhibitor VIII; [2]) [µM]
"FTC-133 (thyroid, adherent)",0.978,> 2000,0.908,> 2.56,0.986,> 10.2
"RCC-FG2 (kidney, adherent)",0.891,> 2000,–,–,0.86,> 10.2
"GB-1 (glioma, adherent)",0.905,> 2000,0.943,> 2.56,0.958,> 10.2
"C-33-A (cervix, adherent)",0.969,> 2000,0.933,> 2.56,0.887,> 10.2
"NCI-SNU-16 (stomach, suspension)",0.871,1520,0.991,> 2.56,0.962,> 10.2
"Becker (glioma, adherent)",0.962,> 2000,0.871,> 2.56,0.944,> 10.2
"SK-MEL-3 (melanoma, adherent)",0.978,> 2000,0.93,> 2.56,0.909,> 10.2
"PE/CA-PJ15 (head and neck, adherent)",0.792,985,0.986,> 2.56,0.977,> 10.2
"BT-483 (breast, adherent)",0.964,> 2000,0.947,> 2.56,0.816,> 10.2
"SW13 (adrenal gland, adherent)",0.976,> 2000,0.984,> 2.56,0.933,> 10.2
"A4-Fuk (B-cell lymphoma, suspension)",0.623,276,0.837,1.82,0.767,3.95
"L-540 (Hodgkin lymphoma, suspension)",0.821,994,0.99,> 2.56,0.958,> 10.2
"H513 (mesothelioma, semi-adherent)",0.901,> 2000,0.937,> 2.56,0.908,> 10.2
"JHU-029 (head and neck, adherent)",0.734,689,0.804,1.64,–,–
"MMAC-SF (melanoma, adherent)",0.962,> 2000,0.979,> 2.56,0.877,> 10.2
"SCH (stomach, adherent)",0.891,> 2000,0.988,> 2.56,0.981,> 10.2
"HT55 (large intestine, adherent)",0.973,> 2000,–,–,0.99,> 10.2
"NCI-H322M (lung adenocarcinoma, suspension)",0.911,> 2000,0.981,> 2.56,0.852,> 10.2
"H2795 (mesothelioma, adherent)",0.964,> 2000,0.947,> 2.56,0.826,6.1
"TUR (B-cell lymphoma, suspension)",0.735,550,0.978,> 2.56,0.767,3.52

Cell Line,AUC (AICAR),IC50 (AICAR) [µM],AUC (AKT inhibitor VIII; [1]),IC50 (AKT inhibitor VIII; [1]) [µM],AUC (AKT inhibitor VIII; [2]),IC50 (AKT inhibitor VIII; [2]) [µM]
"HCC38 (breast, adherent)",0.96,> 2000,0.846,2.09,0.88,> 10.2
"RPMI-6666 (Hodgkin lymphoma, suspension)",0.93,> 2000,0.889,> 2.56,0.517,0.717
"BICR10 (head and neck, adherent)",0.804,1190,0.843,2.25,0.982,> 10.2
"PCI-15A (head and neck, adherent)",0.981,> 2000,0.987,> 2.56,0.931,> 10.2
"MKN45 (stomach, adherent)",0.972,> 2000,0.971,> 2.56,0.835,9.36
"NCI-H2087 (lung adenocarcinoma, semi-adherent)",0.915,> 2000,0.968,> 2.56,0.829,7.04
"ES-2 (ovary, adherent)",0.839,1140,0.991,> 2.56,0.915,> 10.2
"NCI-H1048 (small cell lung carcinoma, adherent)",0.941,> 2000,0.96,> 2.56,0.773,3.58
"IGR-1 (melanoma, adherent)",0.954,> 2000,0.965,> 2.56,0.93,> 10.2
"EN (endometrium, adherent)",0.977,> 2000,0.984,> 2.56,0.831,9
"SK-UT-1 (soft tissue, adherent)",0.937,> 2000,0.804,1.15,0.899,> 10.2
"PANC-03-27 (pancreas, adherent)",0.921,> 2000,0.921,> 2.56,0.926,> 10.2
"MDA-MB-361 (breast, adherent)",0.846,1440,0.69,0.544,0.695,2.25
"RT4 (bladder, adherent)",0.952,> 2000,0.987,> 2.56,0.879,> 10.2
"8305C (thyroid, adherent)",0.926,> 2000,0.963,> 2.56,0.959,> 10.2
"KYSE-70 (oesophagus, adherent)",0.892,> 2000,0.892,> 2.56,0.915,> 10.2
"SW1417 (large intestine, adherent)",0.946,> 2000,0.986,> 2.56,0.884,> 10.2
"NCI-H1944 (lung adenocarcinoma, adherent)",0.967,> 2000,0.935,> 2.56,0.635,1.55
"JEG-3 (urogenital system, adherent)",0.851,1310,0.986,> 2.56,0.991,> 10.2
"Hs746T (stomach, adherent)",0.772,1060,0.971,> 2.56,0.746,4.25

# — the supplement of paper PMC4967469
